Measured values published in the supplement of paper PMC4967469.
A lower IC50 marks a more sensitive line; a fit beyond the top or the lowest dose is shown as a bound at that dose. AUC is the area under the same curve over the 256-fold range up to the top dose, as a fraction; it is 1 without any effect and falls as sensitivity rises. For part of these data: The top dose, if marked as inferred, was derived from the fitted curves, not read from the paper.

Legend:
Test in all cases: Viability of human cancer cell lines after 72 h of drug (GDSC screen)
piperlongumine = compound: COc1cc(/C=C/C(=O)N2CCC=CC2=O)cc(OC)c1OC [piperlongumine]; conditions: top dose 10 µM
Description: (§1)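 Human cancer cell lines in 384-well plates, medium with 10% serum, drug for 72 h over a 256-fold dose range (nine 2-fold or five 4-fold steps up to the top dose). Adherent lines were fixed and stained with the nucleic acid dye Syto60, suspension lines read with resazurin; signal relative to control wells, capped at 0 and 100%. One two-parameter sigmoid per drug and line, fitted in a mixed model over all curves with the slope shared within a line.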

GW 441756 = compound: Cn1cc(/C=C2\C(=O)Nc3cccnc32)c2ccccc21 [GW 441756]; conditions: top dose 2 µM; top dose inferred
Description: as §1

PIK-93 = compound: CC(=O)Nc1nc(C)c(-c2ccc(Cl)c(S(=O)(=O)NCCO)c2)s1 [PIK-93]; conditions: top dose 20 µM
Description: as §1

ABT-263 = compound: CC1(C)CCC(c2ccc(Cl)cc2)=C(CN2CCN(c3ccc(C(=O)NS(=O)(=O)c4ccc(N[C@H](CCN5CCOCC5)CSc5ccccc5)c(S(=O)(=O)C(F)(F)F)c4)cc3)CC2)C1 [ABT-263]; conditions: top dose 2 µM; top dose inferred
Description: as §1

Cell Line	AUC (piperlongumine)	IC50 (piperlongumine)	AUC (GW 441756)	IC50 (GW 441756)	AUC (PIK-93)	IC50 (PIK-93)	AUC (ABT-263)	IC50 (ABT-263)
NCI-H1435 (lung adenocarcinoma, semi-adherent)	0.943	> 10 µM	0.992	> 2 µM	0.949	> 20 µM	0.709	0.449 µM
NCI-H1437 (lung adenocarcinoma, adherent)	0.817	5.91 µM	0.945	> 2 µM	0.913	> 20 µM	0.968	> 2 µM
NCI-H1563 (lung adenocarcinoma, adherent)	0.845	9.31 µM	0.826	1.53 µM	0.739	7 µM	0.942	> 2 µM
NCI-H1568 (lung adenocarcinoma, adherent)	0.796	6.02 µM	0.971	> 2 µM	0.915	> 20 µM	0.97	> 2 µM
NCI-H1623 (lung adenocarcinoma, adherent)	0.921	> 10 µM	0.903	> 2 µM	0.924	> 20 µM	0.889	> 2 µM
NCI-H1651 (lung adenocarcinoma, adherent)	0.804	5.45 µM	0.983	> 2 µM	0.979	> 20 µM	0.979	> 2 µM
NCI-H1688 (small cell lung carcinoma, adherent)	0.927	> 10 µM	0.986	> 2 µM	0.737	6.42 µM	0.715	0.546 µM
NCI-H1693 (lung adenocarcinoma, adherent)	0.653	2.15 µM	0.942	> 2 µM	0.82	> 20 µM	0.924	> 2 µM
NCI-H1703 (lung adenocarcinoma, adherent)	0.732	3.38 µM	0.659	0.383 µM	0.859	> 20 µM	0.879	> 2 µM
NCI-H1755 (lung adenocarcinoma, adherent)	0.857	> 10 µM	0.969	> 2 µM	0.878	> 20 µM	0.981	> 2 µM
NCI-H1781 (lung adenocarcinoma, adherent)	0.92	> 10 µM	0.913	> 2 µM	0.923	> 20 µM	0.979	> 2 µM
NCI-H1792 (lung adenocarcinoma, adherent)	0.917	> 10 µM	0.983	> 2 µM	0.915	> 20 µM	0.964	> 2 µM
NCI-H1944 (lung adenocarcinoma, adherent)	0.921	> 10 µM	0.809	1.13 µM	0.76	7.5 µM	0.956	> 2 µM
NCI-H1993 (lung adenocarcinoma, adherent)	0.717	3.18 µM	0.977	> 2 µM	0.895	> 20 µM	0.979	> 2 µM
NCI-H2009 (lung adenocarcinoma, adherent)	0.793	4.87 µM	0.964	> 2 µM	0.943	> 20 µM	0.956	> 2 µM
NCI-H2023 (lung adenocarcinoma, adherent)	0.805	6.61 µM	0.967	> 2 µM	0.93	> 20 µM	0.912	> 2 µM
NCI-H2087 (lung adenocarcinoma, semi-adherent)	0.842	7.81 µM	0.983	> 2 µM	0.944	> 20 µM	0.914	> 2 µM
NCI-H2110 (non-small cell lung carcinoma, adherent)	0.844	7.46 µM	0.973	> 2 µM	0.638	3.04 µM	0.976	> 2 µM
NCI-H2172 (non-small cell lung carcinoma, adherent)	0.901	> 10 µM	0.982	> 2 µM	0.945	> 20 µM	0.957	> 2 µM
NCI-H2291 (lung adenocarcinoma, adherent)	0.923	> 10 µM	0.984	> 2 µM	0.983	> 20 µM	0.933	> 2 µM
NCI-H2342 (lung adenocarcinoma, adherent)	0.787	4.84 µM	0.981	> 2 µM	0.984	> 20 µM	0.827	–
NCI-H2347 (lung adenocarcinoma, adherent)	0.803	6.25 µM	0.97	> 2 µM	0.851	> 20 µM	0.939	> 2 µM
NCI-H2405 (lung adenocarcinoma, adherent)	0.746	3.46 µM	0.982	> 2 µM	0.919	> 20 µM	0.898	> 2 µM
NCI-H2444 (non-small cell lung carcinoma, adherent)	0.896	> 10 µM	0.971	> 2 µM	0.95	> 20 µM	0.924	> 2 µM

Cell Line	AUC (piperlongumine)	IC50 (piperlongumine)	AUC (GW 441756)	IC50 (GW 441756)	AUC (PIK-93)	IC50 (PIK-93)	AUC (ABT-263)	IC50 (ABT-263)
NCI-H2452 (mesothelioma, adherent)	0.766	4.37 µM	0.984	> 2 µM	0.978	> 20 µM	0.97	> 2 µM
NUGC-4 (stomach, adherent)	0.78	4.12 µM	0.954	> 2 µM	0.843	14.2 µM	0.613	0.256 µM
NY (osteosarcoma, adherent)	0.852	7.56 µM	0.986	> 2 µM	0.976	> 20 µM	0.915	> 2 µM
OACM5-1 (oesophagus, semi-adherent)	0.852	9.32 µM	0.986	> 2 µM	0.388	0.589 µM	0.953	> 2 µM
OACp4C (oesophagus, adherent)	0.874	> 10 µM	0.888	> 2 µM	0.313	0.333 µM	0.623	0.292 µM
OAW-42 (ovary, adherent)	0.705	2.5 µM	0.977	> 2 µM	0.801	10.7 µM	0.796	1.02 µM
OC-314 (ovary, adherent)	0.639	1.42 µM	0.982	> 2 µM	0.8	8.1 µM	0.971	> 2 µM
OE19 (oesophagus, adherent)	0.814	6.36 µM	0.975	> 2 µM	0.986	> 20 µM	0.93	> 2 µM
OE21 (oesophagus, adherent)	0.739	3.99 µM	0.934	> 2 µM	0.876	> 20 µM	0.867	> 2 µM
OE33 (oesophagus, adherent)	0.802	6.03 µM	0.942	> 2 µM	0.814	13.6 µM	0.969	> 2 µM
OSC-20 (head and neck, adherent)	0.762	4.22 µM	0.98	> 2 µM	0.84	17.7 µM	0.971	> 2 µM
OV-7 (ovary, adherent)	0.72	3.69 µM	0.969	> 2 µM	0.614	3.02 µM	0.753	1 µM
OV-17R (ovary, adherent)	0.764	5.08 µM	0.828	1.97 µM	0.76	9.8 µM	0.967	> 2 µM
OV-56 (ovary, adherent)	0.797	4.49 µM	0.967	> 2 µM	0.872	17.7 µM	0.976	> 2 µM
OV-90 (ovary, adherent)	0.862	> 10 µM	0.956	> 2 µM	0.945	> 20 µM	0.765	0.937 µM
OVCA420 (ovary, adherent)	0.834	9.86 µM	0.981	> 2 µM	0.926	> 20 µM	0.982	> 2 µM
OVCA433 (ovary, adherent)	0.699	2.43 µM	0.941	> 2 µM	0.868	> 20 µM	0.985	> 2 µM
OVCAR-5 (ovary, adherent)	0.743	3.66 µM	0.825	1.54 µM	0.853	> 20 µM	0.903	> 2 µM
OVCAR-8 (ovary, adherent)	0.774	3.5 µM	0.99	> 2 µM	0.793	8.08 µM	0.963	> 2 µM
OVISE (ovary, adherent)	0.753	4.36 µM	0.98	> 2 µM	0.711	6.08 µM	0.278	0.0235 µM
OVK-18 (ovary, adherent)	0.687	2.22 µM	0.941	> 2 µM	0.97	> 20 µM	0.965	> 2 µM
OVKATE (ovary, adherent)	0.87	> 10 µM	0.804	1.98 µM	0.724	8.45 µM	0.969	> 2 µM
OVMIU (ovary, adherent)	0.783	5.37 µM	0.923	> 2 µM	0.52	1.44 µM	0.921	> 2 µM
